Laboratory results published in publication PMC4336329 (PLoS ONE, 2015).
Among all 310,000 compounds or so, about 14,000 (4.5%) showed an effect of 50% or more. Effects have a minus sign here. This is one part of the list.

What follows are compounds tested against human ether-à-go-go-related gene (hERG) potassium channel (human, UniProt Q12809) (assay: primary screen, population patch clamp on CHO cells stably expressing hERG).
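Note: peak tail current of the secondary pulse compared with the same well before compound.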

human ether-à-go-go-related gene (hERG) potassium channel, sequence (Q12809 whole entry, looked up): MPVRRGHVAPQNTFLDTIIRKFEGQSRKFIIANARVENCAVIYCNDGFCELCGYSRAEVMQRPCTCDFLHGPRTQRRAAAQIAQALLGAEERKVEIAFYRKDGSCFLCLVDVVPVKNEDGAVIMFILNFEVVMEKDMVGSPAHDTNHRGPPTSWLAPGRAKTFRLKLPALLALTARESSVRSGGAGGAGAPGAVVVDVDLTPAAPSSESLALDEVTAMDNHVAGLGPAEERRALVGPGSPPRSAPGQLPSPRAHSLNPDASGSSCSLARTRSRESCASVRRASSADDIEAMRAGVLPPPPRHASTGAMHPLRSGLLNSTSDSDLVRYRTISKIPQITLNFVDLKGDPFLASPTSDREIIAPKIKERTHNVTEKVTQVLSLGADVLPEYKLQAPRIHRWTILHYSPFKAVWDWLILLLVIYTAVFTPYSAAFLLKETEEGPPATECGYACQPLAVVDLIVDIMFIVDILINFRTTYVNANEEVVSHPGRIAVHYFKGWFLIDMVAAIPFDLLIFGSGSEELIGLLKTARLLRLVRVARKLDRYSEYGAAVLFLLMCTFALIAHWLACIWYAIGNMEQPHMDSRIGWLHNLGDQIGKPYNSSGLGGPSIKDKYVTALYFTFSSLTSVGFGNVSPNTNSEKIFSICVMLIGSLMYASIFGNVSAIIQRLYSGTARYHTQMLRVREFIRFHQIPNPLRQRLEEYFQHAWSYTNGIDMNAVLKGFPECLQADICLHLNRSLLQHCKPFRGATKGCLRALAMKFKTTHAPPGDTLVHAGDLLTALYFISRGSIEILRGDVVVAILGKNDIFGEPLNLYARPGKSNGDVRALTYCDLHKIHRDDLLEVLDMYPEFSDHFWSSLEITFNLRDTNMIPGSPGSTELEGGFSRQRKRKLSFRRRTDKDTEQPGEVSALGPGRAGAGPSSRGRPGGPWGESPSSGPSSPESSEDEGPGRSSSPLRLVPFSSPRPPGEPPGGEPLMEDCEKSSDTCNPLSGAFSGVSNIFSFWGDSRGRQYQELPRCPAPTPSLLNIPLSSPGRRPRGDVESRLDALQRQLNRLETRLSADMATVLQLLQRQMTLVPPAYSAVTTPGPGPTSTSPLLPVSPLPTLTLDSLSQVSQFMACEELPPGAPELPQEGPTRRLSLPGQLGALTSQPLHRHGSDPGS

Structure (SMILES)	hERG current change (%, negative = inhibition) at 10uM
CCn1c(SCC(=O)Nc2sc(C)c(C)c2C#N)nnc1C(C)C	11.5%
CSCCCN1CCCC(CO)(Cc2ccccc2F)C1 (stereo not shown)	-38.3%
CC(OC(=O)c1cccs1)C(=O)NCC1CCCO1 (stereo not shown)	-3%
CCS(=O)(=O)N1CCC(C(=O)Oc2ccccc2Br)CC1	8.16%
O=C(Cn1nc(C(=O)O)c2ccccc2c1=O)Nc1cccc(Br)c1	9.42%
CCCCNC(=O)Nc1ccccc1C(=O)NCCC	-3.27%
FC(F)Oc1ccccc1/C=N/n1cnc2ccccc21	13.2%
CCCCCCC(=O)Nc1c2c(nc3ccccc13)N(C)CC2	-68%
CSc1ccc(Cl)c(C(=O)OCC(=O)NC2CC2)c1	10.4%
Cc1cc(/C=C2\SC(=Nc3ccc(F)cc3)NC2=O)c(C)n1-c1ccc(S(N)(=O)=O)cc1	3.73%
COC(=O)c1ccccc1NC(=O)c1c(O)c2c([nH]c1=O)CCCC2	7.77%
CCOC(=O)c1c(C)[nH]c2cc(Br)c(OC)cc12	18.3%
CCOc1ccccc1NC(=O)c1cc(-c2cc(OC)c(OC)c(OC)c2)nc2ccccc12	19.8%
COc1ccc(/C(O)=C2/C(=O)C(=O)N(CCCN(C)C)C2c2ccccc2)cc1OC (stereo not shown)	-4.33%
O=C(NCCN1CCOCC1)c1ccc(=O)oc1	17.6%
O=c1[nH]nc(Cc2ccc([N+](=O)[O-])cc2)c2ccccc12	-70.2%
Cc1[nH]ccc2c1[nH]c1cc(=O)ccc12	-23.7%
Cc1cccc(S(=O)(=O)N2CN(CC3CCCO3)c3nc4ccccc4nc32)c1 (stereo not shown)	-28.4%
O=C(Nc1ccc(S(=O)(=O)N2CCCC2)cc1)c1ccc(OCC2CCCO2)cc1 (stereo not shown)	0.877%
CC1(C)C2CC[C@]3(C)C(CC=C4[C@@H]5C[C@@](C)(CO)[C@@H](O)C[C@]5(C(=O)O)CC[C@]43C)[C@@]2(C)CC[C@@H]1O (stereo partly shown)	18%
CCc1ccccc1NC(=O)NC1CC2CCC(C1)N2Cc1ccco1 (stereo not shown)	15.4%
Cc1csc2nc(CCNS(=O)(=O)c3ccc4c(c3)OCCO4)cn12	2.18%
COc1cccc2sc3ccc(C#CC4(O)CCCCC4)cc3c(=O)c12	2.07%
CCn1c(Nc2ccccc2Cl)nc2ccccc21	18.2%
O=C(Nc1ccc(C(=O)c2ccc(C(=O)O)c(C(=O)O)c2)cc1)c1ccccc1	17.2%
